Legend:
[1] = target: T1, HMGB1(disulfide), disulfide linked form of full-length HMGB1 (HMGB1C23-C45C106h) (rat, UniProt P63159 1-215, disulfide C23-C45; C106 reduced); assay: SPR (Biacore 2000); Z-ABD captured on HSA, analyte injected; heterogeneous ligand parallel reactions model, ka2
T1 construct: unlabelled in Biacore and Attana; also called b-HMGB1(disulfide)
T1 sequence: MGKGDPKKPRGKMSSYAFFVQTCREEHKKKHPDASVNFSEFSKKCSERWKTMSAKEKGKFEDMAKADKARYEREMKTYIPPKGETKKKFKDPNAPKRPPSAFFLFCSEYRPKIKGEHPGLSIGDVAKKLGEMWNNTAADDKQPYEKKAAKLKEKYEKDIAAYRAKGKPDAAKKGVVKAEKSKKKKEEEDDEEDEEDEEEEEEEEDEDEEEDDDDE
Protocol: Biacore kinetic and specificity analysis: Kinetic constants (kₐ and kd) and affinities (KD) for HMGB1(red), HMGB1(disulfide), boxA(disulfide) and GST-boxA(red) were determined for the A-box binding Z-ABD polypeptides ZA3812 (SEQ ID NO:35) and ZA3914 (SEQ ID NO:36) (see Example 2), as well as for the HMGB1(red) interaction with the B-box binding polypeptide ZA3975, using a Biacore 2000 instrument (GE Healthcare).
The experiment was performed as a capture assay, in which human serum albumin (HSA, Novozymes, cat. no. 230-005) was immobilized on the carboxylated dextran layer of one CM5 chip surface (GE Healthcare, cat. no. BR100012) to immobilization levels of approximately 3000 RU. The immobilization was performed using amine coupling chemistry according to the manufacturer's protocol and using HBS-EP (GE Healthcare, cat. no. BR100188) as running buffer. In a first set of experiments, Z-ABD polypeptides were analyzed under non-reducing conditions. One flow cell surface was activated and deactivated for use as blank during ligand and analyte injections. In the kinetic experiment, HBS-EP was used as running buffer and the flow rate was 30 μl/min. The ligand, i.e. the Z-ABD polypeptide, was diluted in HBS-EP buffer to a concentration of 30 nM and injected during 2 min. […]

[2] = target: T2, boxA(disulfide), disulfide linked form of A-box domain of HMGB1 (human, UniProt P09429 1-89, disulfide C23-C45); assay: SPR (Biacore 2000); Z-ABD captured on HSA, analyte injected; 1:1 Langmuir model
T2 construct: also called b-boxA(disulfide)
T2 sequence: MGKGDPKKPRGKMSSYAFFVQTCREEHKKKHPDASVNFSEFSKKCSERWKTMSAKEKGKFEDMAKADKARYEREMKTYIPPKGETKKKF
Protocol: Biacore kinetic and specificity analysis: The interactions of the A-box binding Z-ABD polypeptides ZA3812 (SEQ ID NO:35) and ZA3914 (SEQ ID NO:36) with four different HMGB1 variants were analyzed in a Biacore instrument by injecting various concentrations of HMGB1 variants over a surface containing ZA3812 and ZA3914, respectively, captured on immobilized HSA. […] In addition, the interaction of the B-box binding Z-ABD polypeptide ZA3975 (SEQ ID NO:37) was analyzed for binding to HMGB1(red) in the same manner.

[3] = target: T3, HMGB1(red), fully reduced form of full-length HMGB1 (HMGB1C23hC45hC106h) (rat, UniProt P63159 1-215, all cysteines reduced (C23h, C45h, C106h)); assay: QCM (Attana A200); polypeptide captured on HSA, HMGB1(red) injected, 2 mM DTT; 1:1 or 1:2 model, average KD
T3 construct: Produced by HMGBiotech; also called HMGB1(reduced); b-HMGB1(red)
T3 sequence: T1 sequence
Protocol: (§1) Binding analysis: The Attana A200® biosensor was used to characterize interactions between the dimeric polypeptides (SEQ ID NO:38-48) and HMGB1(red) under reducing conditions and/or HMGB1(disulfide) under non-reducing conditions. The monomeric ZA3812 (SEQ ID NO:35) was included for comparison. The experiment was performed as a capture assay, in which HSA was immobilized on Attana's sensor chip Low-NonSpecific-Binding (LNB). Immobilization was performed using amine coupling. The instrument has two sensor surfaces and HSA was immobilized on both surfaces. Around 110 Hz of HSA was stably immobilized on the surfaces.
(§2) In the kinetic experiment, HBS-EP+/−2 mM DTT was used as running buffer and the flow rate was 25 μl/min at 22° C. In each cycle, one polypeptide was tested against one concentration of HMGB1. […] The analyte HMGB1(reduced) was diluted in HBS-EP+2 mM DTT within a concentration range of 1.33 to 21.4 μg/ml, and the analyte HMGB1(disulfide) was diluted in HBS-EP buffer within a concentration range of 0.62 to 10 μg/ml. Both analytes were subsequently injected for 84 s over both channel A and B, where channel B was used as a blank surface for curve subtraction. Buffer injections were also made for surface subtractions. After dissociation, the surfaces were regenerated with a 30 s injection of 100 mM HCl followed by a 30 s injection of 20 mM NaOH. Data was collected by Attester Software and subsequently processed in the Evaluation Software. To calculate the kinetic parameters (kₐ and kd) and affinity constant (KD), the experimental data were fitted using a 1:1 or a 1:2 binding model.
(§3) Binding analysis of dimeric polypeptides targeting HMGB1: The interactions of a set of dimeric polypeptides, as well as one monomeric polypeptide, with HMGB1(reduced) and/or HMGB1(disulfide) were analyzed using an Attana A200® biosensor instrument by injecting various concentrations of HMGB1 over a surface containing captured polypeptides in fusion with ABD bound by immobilized HSA.

[4] = target: T3, HMGB1(red), fully reduced form of …; assay: QCM (Attana A200); polypeptide captured on HSA, HMGB1(red) injected, 2 mM DTT; 1:1 or 1:2 model, relevant kd (most represented)
Protocol: as §1, §2, §3

[5] = target: T3, HMGB1(red), fully reduced form of …; assay: cell-based or functional assay

B1: ZA3812 ([ZH 27]-ASGS-PP013) (designed binder)
chain: AEAKYAKEDWDAFWEIIWLPNLTDAQQRAFIYKLEDDPSQSSELLSEAKKLNDSQAPKASGSLAEAKEAANAELDSYGVSDFYKRLIDKAKTVEGVEALKDAILAALP
- kon [1]: 13000 M⁻¹ s⁻¹
- Kd [2]: 1.4 nM
- koff [2]: 0.00021 s⁻¹
- kon [2]: 150000 M⁻¹ s⁻¹
- Kd [3]: 51 nM
- koff [4]: 0.013 s⁻¹
- IC50 of inhibition of HMGB1 induced cell migration [5]: ≤ 0.1 nM
